Test results as given in the supplement of paper PMC12578646, “Prodrug florfenicol amine is activated by intrinsic resistance to target Mycobacterium abscessus” (Nature Microbiology, 2025).
≈ marks a conversion by molar mass, not a printed value. ± gives the standard deviation of the averaged measurements. M. abscessus ATCC 19977 and its deletion, point and complemented mutants after 5 days of drug at 37 °C plus 24 h of resazurin. Growth in % of untreated wells at the dose given (lower = more inhibition); checkerboards give % inhibition (higher = more inhibition); IC50 from the fitted curve (lower = more potent). No active / inactive call. IC50 values come from the same 384-well curves. Growth is not capped and can exceed 100%. The direction of the checkerboard scale is read from the raw signals. Capreomycin is a mixture.

Experiments:
[1] = tested on: Mycobacterium abscessus ATCC 19977 Eis2 E120fs
Method: (§1)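 384-well two-fold dose series, two replicates; 5 days at 37 °C, then 24 h with resazurin; fluorescence scaled to growth and killed controls.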

[2] = tested on: Mycobacterium abscessus ATCC 19977 Eis2 Y227D
Method: as §1

[3] = tested on: Mycobacterium abscessus ATCC 19977 Δeis2
Method: as §1

[4] = tested on: Mycobacterium abscessus ATCC 19977 WhiB7 F24fs
Method: as §1

[5] = tested on: Mycobacterium abscessus ATCC 19977 WhiB7 L37P
Method: as §1

[6] = tested on: Mycobacterium abscessus ATCC 19977 WhiB7 A51T
Method: as §1

[7] = tested on: Mycobacterium abscessus ATCC 19977 Eis2 Y255*
Method: as §1

[8] = tested on: Mycobacterium abscessus ATCC 19977 WhiB7 T70fs
Method: as §1

[9] = tested on: Mycobacterium abscessus ATCC 19977 Eis2 Y284*
Method: as §1

[10] = tested on: Mycobacterium abscessus ATCC 19977 Eis2 T258R
Method: as §1

[11] = tested on: Mycobacterium abscessus ATCC 19977 ΔwhiB7
Method: as §1

[12] = tested on: Mycobacterium abscessus ATCC 19977 WhiB7 R76del
Method: as §1

[13] = tested on: Mycobacterium abscessus ATCC 19977 Eis2 E120fs; assay: growth relative to untreated wells; higher = more growth (less inhibition)
Method: as §1

[14] = tested on: Mycobacterium abscessus ATCC 19977 Eis2 Y227D; assay: as above
Method: as §1

[15] = tested on: Mycobacterium abscessus ATCC 19977 Δeis2; assay: as above
Method: as §1

[16] = tested on: Mycobacterium abscessus ATCC 19977 WhiB7 F24fs; assay: as above
Method: as §1

[17] = tested on: Mycobacterium abscessus ATCC 19977 WhiB7 L37P; assay: as above
Method: as §1

[18] = tested on: Mycobacterium abscessus ATCC 19977 WhiB7 A51T; assay: as above
Method: as §1

[19] = tested on: Mycobacterium abscessus ATCC 19977 Eis2 Y255*; assay: as above
Method: as §1

[20] = tested on: Mycobacterium abscessus ATCC 19977 WhiB7 T70fs; assay: as above
Method: as §1

[21] = tested on: Mycobacterium abscessus ATCC 19977 Eis2 Y284*; assay: as above
Method: as §1

CN[C@@H]1[C@H](O)[C@H](NC)[C@H]2O[C@@]3(O)C(=O)C[C@@H](C)O[C@H]3O[C@@H]2[C@H]1O [spectinomycin]
Conditions	IC50 [µg/mL]
[1]	312 (≈ 939 µM)
[2]	223 (≈ 671 µM)
[3]	260 (≈ 784 µM)
[4]	29.6 (≈ 89 µM)
[5]	29.5 (≈ 88.6 µM)
[6]	35 (≈ 105 µM)
[7]	234 (≈ 703 µM)
[8]	31.4 (≈ 94.4 µM)
[9]	247 (≈ 743 µM)
[10]	207 (≈ 623 µM)
[11]	30.2 (≈ 90.8 µM)
[12]	30.6 (≈ 92.2 µM)

growth [%]
Conditions	[13]	[14]	[15]	[16]	[17]	[18]	[19]	[20]	[21]
0.5 µg/mL	95.9 ± 3.3	97.1 ± 7.6	98.8 ± 6.6	100 ± 14	102 ± 3	94.9 ± 11	91.7 ± 2.6	93 ± 9.1	85.9 ± 2.3
1 µg/mL	122 ± 7.4	105.3 ± 0.79	105.5 ± 0.17	116 ± 2.1	117 ± 6.8	117 ± 3.3	108 ± 0.4	110.3 ± 0.67	108 ± 6
2 µg/mL	104 ± 8.7	100 ± 3.7	105 ± 3.5	111 ± 3.2	107 ± 5.8	107 ± 2	101 ± 14	102 ± 2.7	100 ± 2.3
4 µg/mL	118 ± 4.3	116 ± 3.7	112 ± 2.3	126 ± 4.2	128 ± 6.9	130 ± 1.9	125 ± 1.3	123 ± 6.1	113 ± 4.9
8 µg/mL	119 ± 1.5	112 ± 9.1	108.7 ± 0.21	129 ± 3.5	134 ± 2.7	138 ± 4.6	106.8 ± 0.12	126 ± 4.1	110 ± 1.6
16 µg/mL	129.3 ± 0.5	123.8 ± 0.3	115 ± 7.9	135 ± 5	138 ± 3.5	143 ± 3.9	127 ± 3	129 ± 1.9	123 ± 2.4
32 µg/mL	132 ± 3.8	132 ± 3.8	125 ± 3.4	33.2 ± 1.4	32.4 ± 1.3	62.6 ± 21	128 ± 1.6	40.2 ± 2.9	125 ± 1.7
64 µg/mL	138 ± 2.2	131 ± 1.6	122 ± 6.2	1.9 ± 1.9	1.99 ± 0.64	3.53 ± 1.4	137.2 ± 1.1	-1.51 ± 1.7	129 ± 0.4
128 µg/mL	133 ± 7.7	116 ± 31	123 ± 7.1	0.608 ± 1.5	-0.0571 ± 0.082	0.0667 ± 1.4	117 ± 2.3	-1.65 ± 2	97.5 ± 32
256 µg/mL	57.8 ± 22	30.9 ± 3.8	49.4 ± 2.8	-0.883 ± 0.13	-0.0832 ± 0.26	-0.071 ± 1	36.3 ± 11	-2.46 ± 1.1	47.3 ± 0.23
512 µg/mL	24.1 ± 6.3	22.14 ± 0.064	11 ± 4.8	-0.43 ± 0.27	-0.0909 ± 0.007	0.197 ± 1.6	18.3 ± 1.8	-2.77 ± 0.027	9.89 ± 18
1024 µg/mL	5.01 ± 0.27	6.09 ± 0.18	1.72 ± 0.29	1.17 ± 1.1	1.07 ± 0.28	1.77 ± 1.3	2.54 ± 2.9	-0.996 ± 1.3	3.15 ± 0.65

CS(=O)(=O)c1ccc([C@@H](O)[C@@H](CO)NC(=O)C(Cl)Cl)cc1 [thiamphenicol]
Conditions	IC50 [µg/mL]
[1]	987 (≈ 2770 µM)
[2]	992 (≈ 2780 µM)
[3]	534 (≈ 1500 µM)
[4]	28.1 (≈ 79 µM)
[5]	30 (≈ 84.3 µM)
[6]	31.1 (≈ 87.3 µM)
[7]	821 (≈ 2300 µM)
[8]	28.5 (≈ 80 µM)
[9]	715 (≈ 2010 µM)
[10]	533 (≈ 1500 µM)
[11]	41.8 (≈ 117 µM)
[12]	28.3 (≈ 79.3 µM)

growth [%]
Conditions	[13]	[14]	[15]	[16]	[17]	[18]	[19]	[20]	[21]
0.5 µg/mL	105 ± 4.7	106 ± 1.2	99.1 ± 2.2	105.5 ± 0.56	115 ± 1.5	105 ± 8.8	106 ± 4.2	104.3 ± 0.98	103 ± 5.6
1 µg/mL	108.7 ± 0.98	106.2 ± 0.45	99 ± 0.81	113 ± 6.9	105 ± 1	110 ± 7.3	102 ± 6.7	106 ± 0.61	103 ± 5.5
2 µg/mL	112.9 ± 0.43	106 ± 3	98.4 ± 5	102 ± 6.6	93.3 ± 29	108 ± 11	98.8 ± 8.4	94.2 ± 2.7	102 ± 3
4 µg/mL	110 ± 3.8	114 ± 6.5	102 ± 1.4	111.2 ± 0.92	110.2 ± 0.45	117 ± 3.7	107.7 ± 0.68	105 ± 4.7	107 ± 4.3
8 µg/mL	105 ± 1.1	104 ± 2.7	96.4 ± 6.2	108 ± 7.5	109 ± 1.9	113 ± 6	99.79 ± 0.73	100 ± 2.9	99.7 ± 4.8
16 µg/mL	112 ± 2.7	103 ± 6.1	100.4 ± 0.83	117 ± 3.6	119 ± 2.3	124.5 ± 0.48	108 ± 3.7	116.8 ± 1.1	107.2 ± 0.67
32 µg/mL	114 ± 4.1	108 ± 9.6	96.8 ± 0.37	18.8 ± 6.8	39.9 ± 16	44.3 ± 20	104 ± 5.1	27.7 ± 10	104 ± 1.4
64 µg/mL	114 ± 1.9	111 ± 2.7	102 ± 6.2	3 ± 0.68	5.01 ± 0.13	12.4 ± 9.9	113 ± 1.8	5.69 ± 5.7	108.11 ± 0.093
128 µg/mL	122 ± 6.7	119 ± 4.7	105 ± 2.5	-0.477 ± 0.15	-0.0304 ± 0.2	0.413 ± 2.3	116 ± 6.1	-2.96 ± 0.65	116 ± 1.1
256 µg/mL	116 ± 2.9	118.7 ± 0.68	87.2 ± 7.8	-1.45 ± 0.15	-1.14 ± 0.47	-1.66 ± 0.55	117 ± 4.9	-3.31 ± 1.1	112 ± 4.2
512 µg/mL	121 ± 3.7	117 ± 4.1	55.8 ± 3	-1.2 ± 0.27	-1.2 ± 0.083	-1.59 ± 0.89	103 ± 9.1	-3.29 ± 1.1	89.6 ± 9
1024 µg/mL	22.2 ± 9.7	24.8 ± 1.5	8.06 ± 0.72	-0.734 ± 0.07	-1.01 ± 0.83	-0.972 ± 0.69	13.5 ± 3.3	-3.22 ± 1.1	9.04 ± 2.4

CN(C)c1cc(NC(=O)CNC(C)(C)C)c(O)c2c1C[C@H]1C[C@H]3[C@H](N(C)C)C(O)=C(C(N)=O)C(=O)[C@@]3(O)C(O)=C1C2=O [tigecycline]
Conditions	IC50 [µg/mL]
[1]	1.62 (≈ 2.77 µM)
[2]	1.42 (≈ 2.43 µM)
[3]	1.01 (≈ 1.73 µM)
[4]	0.886 (≈ 1.51 µM)
[5]	0.904 (≈ 1.54 µM)
[6]	0.909 (≈ 1.55 µM)
[7]	1.71 (≈ 2.91 µM)
[8]	0.898 (≈ 1.53 µM)
[9]	1.35 (≈ 2.31 µM)
[10]	1.1 (≈ 1.88 µM)
[11]	1.01 (≈ 1.72 µM)
[12]	0.917 (≈ 1.57 µM)

growth [%]
Conditions	[13]	[14]	[15]	[16]	[17]	[18]	[19]	[20]	[21]
0.00390625 µg/mL	107 ± 2.1	108 ± 4.2	101 ± 8.5	104 ± 1.3	95 ± 18	103 ± 3.3	104.2 ± 0.29	104.4 ± 0.88	103.2 ± 0.16
0.0078125 µg/mL	104.1 ± 0.45	102.7 ± 0.25	104 ± 2.1	105 ± 1.8	98.2 ± 9.9	105 ± 11	104 ± 7.4	98.9 ± 1.9	101 ± 6.5
0.015625 µg/mL	100.6 ± 0.77	104.9 ± 0.22	102 ± 3.3	95.7 ± 16	96.1 ± 3.6	99.9 ± 5.3	104 ± 4	95.3 ± 7.7	103 ± 2.2
0.03125 µg/mL	98.3 ± 2.1	104 ± 7.3	102.9 ± 0.4	104 ± 7	103.8 ± 0.9	104 ± 4.8	102 ± 4.3	104 ± 5.5	106 ± 2.7
0.0625 µg/mL	98.8 ± 9.7	95.3 ± 2.2	106.2 ± 1	99.3 ± 3.8	110 ± 8.6	85.5 ± 15	92.7 ± 4.1	101.66 ± 0.08	94.456 ± 0.03
0.125 µg/mL	102.4 ± 0.6	94 ± 6.3	98.2 ± 4.3	105 ± 3.4	115 ± 12	104 ± 9	99.8 ± 2.2	95.9 ± 3.8	97.8 ± 7.3
0.25 µg/mL	119 ± 4.6	109 ± 11	114 ± 7	118 ± 4	116.9 ± 0.64	122 ± 2.5	117 ± 5	119 ± 2.5	108.8 ± 0.12
0.5 µg/mL	128.2 ± 1.1	122 ± 8.3	120 ± 3.6	127 ± 2.8	125.7 ± 0.2	132 ± 2.9	121 ± 4.2	123 ± 2.3	121 ± 1.9
1 µg/mL	108 ± 12	92.7 ± 11	56.2 ± 10	8.22 ± 4.1	15.3 ± 1.8	16.2 ± 3.3	107 ± 5.2	13.1 ± 10	98.6 ± 17
2 µg/mL	2.75 ± 3	8.06 ± 4.7	-2.79 ± 1.2	-4.343 ± 0.04	-4.19 ± 0.24	-4.86 ± 0.95	1.81 ± 2.4	-6.81 ± 1.1	3.03 ± 0.72
4 µg/mL	-6.06 ± 0.21	-5.15 ± 0.75	-7.76 ± 0.17	-7.2 ± 0.093	-6.88 ± 0.26	-7.94 ± 0.73	-6.8 ± 2	-9.48 ± 1.3	-5.15 ± 0.46
